Experimental data reported in PubChem BioAssay AID759 (NMMLSC, 2007).
The whole screen tested about 190,000 compounds, of which about 270 (0.14%) were called active. This list was built around the results that the source calls inconclusive (neither active nor inactive); the mix of calls is not that of the screen.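 The calls were made as follows: active = GTP binding activity at least 20% away from the 100% baseline, either lowered as inhibitor or raised as activator; inconclusive = flagged as likely green fluorescent, judged across all proteins in the well; inactive = the rest.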

Target: GTPase HRas (Homo sapiens) (UniProt P01112)
Sequence of UniProt P01112 (P01112 whole entry, looked up): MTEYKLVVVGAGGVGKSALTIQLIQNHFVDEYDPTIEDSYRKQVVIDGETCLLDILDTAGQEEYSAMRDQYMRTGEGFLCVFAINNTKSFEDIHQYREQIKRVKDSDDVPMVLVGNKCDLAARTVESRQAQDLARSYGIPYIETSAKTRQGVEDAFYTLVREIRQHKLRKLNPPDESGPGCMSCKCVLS
Experiment: HRas wt fluorescent GTP binding changes, either direction – biochemical, wildtype, bead-based flow cytometry, multiplex, primary screen (AID 759);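 also: 0% = unlabeled GTP competition control and 100% = no-compound control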
Conditions: GST-Ras wt beads, Bodipy-FL-GTP binding, at 10 µM, actives lie on both sides

GTP binding activity, inconclusive:
Nc1nc(N)c2sc3nc4c(cc3c2n1)CCC4 81%, CCCC1=C(C(=O)OCC)C(c2cccs2)C(C#N)=C(N)O1 (configuration not stated) 98%, Cn1c(-c2ccccc2)cnc1N 104%, COc1ccc2nc(C)cc(SCC(=O)N/N=C/c3ccc(O)cc3O)c2c1 81%, Cc1ccc(COC(=O)c2ccc3c(c2)C(=O)N(CCCN2CCOCC2)C3=O)cc1 92%, C=CCn1c(C)cc(C(=O)CN2C(=O)c3ccccc3C2=O)c1C 105%, CC(=O)N1CCN=C1SCc1ccc(Br)cc1 104%, CC(OC(=O)c1cc2c(ccc3ccccc32)oc1=O)c1nc2ccccc2s1 (configuration not stated) 87%, CC(c1nnnn1C(C)(C)C)N(Cc1cccnc1)Cc1ccccc1Cl (configuration not stated) 95%, CC(=O)c1sc(N/N=C/c2cccc(O)c2)nc1C 84%, NC(=S)N/N=C/c1ccc(-c2cc(Cl)cc(Cl)c2)o1 87%, Cn1c(=O)n(Cc2ccccc2F)c(=O)c2c1nc1n2CCCN1CCc1ccccc1 94%, Cc1cc(C)n2nc(SCN3C(=O)c4ccccc4C3=O)nc2n1 105%, CC(C)n1cc(/C=C(\C#N)S(=O)(=O)c2ccccc2)c2ccccc21 104%, COc1cc(C(=O)Nc2nc3ccc4nc(C)sc4c3s2)cc(OC)c1OC 100%, CO/N=C/C(=N\Nc1cc(OC)cc(OC)c1)C(=O)c1ccccc1 87%, O=C(N/N=C/c1ccccn1)c1cccc(S(=O)(=O)Nc2ccccc2Cl)c1 86%, Cc1cc(NC(=O)CN2CCN(Cc3ccccc3)CC2)nc2c1c(=O)oc1ccccc12 90%, COc1ccc(/C=C/C(=O)Nc2ccc3nc4n(c(=O)c3c2)CCCC4)cc1 90%, CC(C)Nc1nnc(SCC(=O)Nc2ccc3c(c2)C(=O)c2ccccc2C3=O)s1 85%, O=C(NCCN1CCOCC1)c1csc2c1CCCCC2 103%, COc1ccc(Oc2cnc3ccccc3n2)cc1 92%, CCCc1cc(-n2ccnc2)n2c(nc3ccccc32)c1C#N 133%, COc1ccnc(Nc2ccc(C)c(C)c2)c1C#N 103%, Cc1cccc(NC(=O)[C@H](Cc2ccccc2)NC(=O)OCc2ccccc2)c1 100%, Cn1ncc(Cl)c1C(=O)Nc1nc2ccc(Cl)cc2s1 96%, O=C(CS(=O)(=O)Cc1ccccc1)N1CCc2ccccc21 103%, CC(C)CCNC(=O)CCCn1c(=O)[nH]c2ccc(Br)cc2c1=O 102%, CCOc1ccccc1N1C(=O)CC(N(O)c2ccccc2)C1=O (configuration not stated) 102%, O=C(NC(=S)Nc1cc(C(F)(F)F)ccc1N1CCOCC1)c1sc2ccccc2c1Cl 102%, COc1ccc(N(C)C(=O)CCS(=O)(=O)c2cccc3nonc23)cc1 91%, CCOC(=O)C1=C2SCCN2C(=O)C(C#N)C1(C)C (configuration not stated) 107%, Cc1ccc(SCC(=O)N2CCc3ccccc32)cc1 97%, CCN(CC)c1ccc(/C=c2/sc3nnc(-c4ccccc4C)n3c2=O)cc1 180%, Cc1cccc(NC(=S)N(CCCN2CCOCC2)Cc2ccccn2)c1 104%, CC1Sc2ccccc2N(CC(=O)N(C(C)C)C(C)C)C1=O (configuration not stated) 97%, COc1cc(-c2nc(-c3ccncc3)no2)cc(OC)c1OC 102%, CCC(Sc1nc(=O)cc(N)n1CCc1ccccc1)C(=O)Nc1cc(C)on1 (configuration not stated) 103%, CCOC(=O)c1sc(NCc2ccco2)c(-c2nc3ccccc3s2)c1N 114%, CCOC(=O)CN1C=C(c2ccc3ccccc3n2)C(C[N+](=O)[O-])c2ccccc21 (configuration not stated) 111%, CC(=O)N1c2ccccc2C(=O)OC1c1cccnc1 (configuration not stated) 102%, O=c1[nH]c2cc3c(cc2cc1CN(Cc1cccnc1)C(=S)NCc1ccco1)OCCO3 95%, Cc1cc(C(C)(C)C)oc1C(=O)NCCCNC(=O)c1oc(C(C)(C)C)cc1C 90%, COc1cccc(NC(=O)CN(C)C(C)C(=O)Nc2ccc(C(C)=O)cc2)c1 (configuration not stated) 93%, CCOC(=O)N1CCN(C(=O)/C(=C/c2cccc3ccccc23)NC(=O)c2ccc(OC)cc2)CC1 103%, O=C(COc1ccc(F)cc1)N1CCC(c2ccccc2)C1 (configuration not stated) 105%, O=C(O)CCCCCNS(=O)(=O)c1cccc2c1C(=O)c1ccccc1C2=O 74%, CCN1C(=O)/C(=C/c2cnn(CC)c2C)SC1=S 104%, O=C(c1cccc(OC(F)F)c1)N1CCN(c2ncccn2)CC1 104%, COC(=O)c1cc(OC)c(OC)cc1NC(=O)Nc1cccc(C(C)=O)c1 91%, CSc1nc(N2CCOCC2)c2sccc2n1 93%, CCCN1C(=O)/C(=C/c2c(NCCCOCC)nc3c(C)cccn3c2=O)SC1=S 105%, Cc1cc(NC(=O)c2cccs2)ncc1NC(=O)c1cccc(F)c1 96%, CCn1cc(CNC(=O)c2cc(COc3ccc(F)cc3Cl)on2)cn1 85%, Cc1ccc(C2=NN(C3=NN=C(N)Cc4ncnn43)C(O)(C(F)(F)F)C2)cc1 (configuration not stated) 96%, C=CCNC(=O)/C(=C\c1ccc(OC)cc1)NC(=O)c1ccc([N+](=O)[O-])cc1 91%, Cc1ccc(C(=O)Nc2ccc3c(c2)CCC3)o1 105%, O=C(Nc1ccc2sc3ccccc3c(=O)c2c1)c1ccccc1Cl 87%, CC1(C)CC(CCNS(=O)(=O)c2ccccc2)(c2ccccc2)CCO1 (configuration not stated) 103%, COCCn1c(C)cc(C(=O)CSc2nnc(-c3cccnc3)n2-c2ccccc2F)c1C 101%, O=C(CCn1c(=O)oc2ccccc21)N1CCN(c2ccccc2F)CC1 104%, C=CCNCCCCOc1ccccc1-c1ccccc1 104%, COc1cc(/C=N/NC(=O)c2csc3c2CCCC3)cc(OC)c1O 95%, O=[N+]([O-])c1cc(S(=O)(=O)Nc2cccc(C(F)(F)F)c2)ccc1-n1nnc2ccccc21 91%, CNC(=S)N1CCc2cc(OC)c(OC)cc2C1COc1ccc(F)cc1 (configuration not stated) 95%, O=C(CSc1nc2ccccc2c(=O)n1-c1ccccc1)N/N=C/C=C/c1ccccc1[N+](=O)[O-] 93%, Cc1nn2c([nH]c(=O)c3ccccc32)c1C=O 97%, CC1CN(c2nn3c(=O)c4ccccc4nc3c3ccccc23)CC(C)O1 (configuration not stated) 90%, O=S(=O)(c1ccccc1)N(CC1CO1)c1ccccc1 (configuration not stated) 93%, O=C(NCC1CCCO1)C(c1ccc(F)cc1)N(C(=O)Cn1nnc(-c2ccc(F)cc2)n1)c1cccc(O)c1 (configuration not stated) 96%, Cc1cc(C)n2ncc(C(=O)NCc3cccnc3)c2n1 106%, COc1ccc(CNC(=O)COC(=O)c2ccc3c(c2)OCCO3)cc1 103%

GTP binding activity, inactive:
Cc1[nH]c2ccccc2c1SCC(=O)N1CCCCCC1 100%, COC(=O)c1ccccc1C(=O)c1ccc2c(c1)NC(=O)CO2 96%, C1COCCNCCOCCOCCOCCN1 100%, Cc1nn(Cc2ccc(Cl)cc2)c2sc(C(=O)O)cc12 96%, Cc1nn(CCc2nn[nH]n2)c2nc(-c3ccc(C4CCCCC4)cc3)cc(C(F)(F)F)c12 82%, Cc1ccc(S(=O)(=O)N2CCC(C(=O)NNC(=O)c3cccnc3)CC2)cc1 96%, COc1cccc(NC(=S)N(CCCN2CCOCC2)C(C)c2cc3ccccc3o2)c1 (configuration not stated) 97%, CC(=O)c1cccc(NC(=O)Cc2ccc3c(c2)CCCC3)c1 98%, COc1ccc(N=C2SC(C(=O)N3CCN(c4ccccc4)CC3)CC(=O)N2C)cc1 (configuration not stated) 97%, CC1SC(C)C(=O)N(CC(=O)Nc2ccc([N+](=O)[O-])cc2)C1=O (configuration not stated) 94%, O=C(N/N=C/c1cccc(O)c1)c1ccc(COc2ccc3c(c2)CCC3)o1 101%, Cn1ccs/c1=N\C(=O)Nc1ccccc1 100%, Cc1c(CCC(=O)O)c(=O)oc2cc3occ(-c4ccc(F)cc4)c3cc12 83%, CCCN(CC(=O)Nc1ccc(C(N)=O)cc1)CC(=O)Nc1ccccc1C 96%, Cc1c(Br)c([N+](=O)[O-])nn1CC(=O)NCCc1c[nH]c2ccccc12 99%, CC1CC(C)CN(C(=O)c2cc3cc(Br)cc(Br)c3o2)C1 (configuration not stated) 95%, CC(=O)c1cccc(CN2CCCC(CCC(=O)NCc3ccc(C)o3)C2)c1 (configuration not stated) 95%, COc1cc(OC)cc(C2=NCCN2)c1 93%, CC(=O)NS(=O)(=O)c1ccc(NC(=O)CSc2ccc(C)cc2)cc1 94%

GTP binding activity, active:
Cc1ccc(S(=O)(=O)c2cc3c(=O)n4ccccc4nc3n(C)c2=N)cc1 79%
